This is an account of results in the supplement of paper PMC12217912.

To fix the notation:
B1: TEV protease; numbered along this chain (parent)
chain: MGESLFKGPRDYNPISSSICHLTNESDGHTTSLYGIGFGPFIITNKHLFRRNNGTLVVQSLHGVFKVKDTTTLQQHLVDGRDMIIIRMPKDFPPFPQKLKFREPQREERICLVTTNFQTKSMSSMVSDTSCTFPSGDGIFWKHWIQTKDGQCGSPLVSTRDGFIVGIHSASNFTNTNNYFTSVPKNFMELLTNQEAQQWVSGWRLNADSVLWGGHKVFMVKPEEPFQPVKEATQL

This is one part of the list. Sequences were assembled here from the parent chain. Inactive controls read about 0.05.

This test covers variants of B1. The test can be described thus: raw area under fraction-flipped curve 0-4 h after induction (AUC4h, not background-subtracted), DNA-recorder readout of cleavage of the substrate (dimensionless); higher = more cleavage of the substrate by the protease variant. Particulars: temperature: 34 °C; time window: 0-4 h after rhamnose induction. As to the method: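 In vivo DNA recorder in E. coli TOP10(DE3) ΔrhaA at 34 °C. Each TEVp single-site mutant (parent TEVp 0) is paired with a single-site variant of the 7-mer TEVs (canonical ENLYFQ|S). The substrate sits between flexible linkers in a Bxb1-sfGFP-TEVs-SsrA fusion, so cleavage stabilises Bxb1 and speeds flipping of a recombination array, read by NGS. The value is the raw area under the fraction-flipped curve over 0-4 h after rhamnose induction (AUC4h), with ≥20 reads per time point. It is not background-subtracted; inactive controls average about 0.047.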
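Further: Bxb1 expression induced with 0.2% (w/v) L-rhamnose at OD600 near 0.5, cultures sampled hourly, flipped fraction per protease–substrate barcode pair counted by paired-end Illumina sequencing.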

As for MGESLFKGPRDYNPISSSICHLTNESDGHTTSLYGIGFGPFIITNKHLFRRNNGTLVVQSLHGVFKVKDTTKLQQHLVDGRDMIIIRMPKDFPPFPQKLKFREPQREERICLVTTNFQTKSMSSMVSDTSCTFPSGDGIFWKHWIQTKDGQCGSPLVSTRDGFIVGIHSASNFTNTNNYFTSVPKNFMELLTNQEAQQWVSGWRLNADSVLWGGHKVFMVKPEEPFQPVKEATQL [T72K], the “area with substrate ENLYFAS” value was found to be 0.0677, the “area with substrate ENLYFCS” value is 0.0697, the “area with substrate ENLYFDS” value came to 0.0658 and the “area with substrate ENLYFES” value was determined as 0.0632. Moreover, the “area with substrate ENLYFFS” value came out at 0.0701, the “area with substrate ENLYFGS” value stood at 0.0569, the “area with substrate ENLYFIS” value was 0.0554 and the “area with substrate ENLYFKS” value turned out to be 0.0642. In addition, the “area with substrate ENLYFLS” value came out at 0.056, the “area with substrate ENLYFMS” value was 0.0638, the “area with substrate ENLYFNS” value came to 0.0638 and the “area with substrate ENLYFPS” value was found to be 0.0591. In addition, the “area with substrate ENLYFRS” value worked out at 0.0635, the “area with substrate ENLYFTS” value turned out to be 0.0656, the “area with substrate ENLYFVS” value worked out at 0.062 and the “area with substrate ENLYFWS” value is 0.0575. For the same variant, the “area with substrate ENLYFYS” value was 0.0561.

As for MGESLFKGPRDYNPISSSICHLTNESDGHTTSLYGIGFGPFIITNKHLFRRNNGTLVVQSLHGVFKVKDTTTLQQHLVDGRDMIIIRMPKDFPPFPQKLKFREPQREERICLVTTNFQTKSMSSMVSDTSCTFPSGDGIFWKHWIQTKDGQCGSPLVSTRDGFIVGIHSASNFTNTNNYFTSVPKNFMELLTNQEAQQWVSCWRLNADSVLWGGHKVFMVKPEEPFQPVKEATQL [G202C], the “area with substrate ENLYFAS” value is 0.0761, the “area with substrate ENLYFCS” value was 0.0799, the “area with substrate ENLYFES” value came to 0.0673 and the “area with substrate ENLYFLS” value was found to be 0.0474. The “area with substrate ENLYFMS” value was determined as 0.0623, the “area with substrate ENLYFNS” value was 0.0543, the “area with substrate ENLYFPS” value was 0.0578 and the “area with substrate ENLYFVS” value was 0.0556. Further, the “area with substrate ENLYFWS” value stood at 0.0709 and the “area with substrate ENLYFYS” value came out at 0.0603.

On to MGESLFKGPRDYNPISSSICHLTNESDGHTTSLYGIGFGPFIITNKHLFRRNNGTLVVQSLHGVFKVKDTTTLQQHLVDGRDMIIIRMPKDFPPFPQKLKWREPQREERICLVTTNFQTKSMSSMVSDTSCTFPSGDGIFWKHWIQTKDGQCGSPLVSTRDGFIVGIHSASNFTNTNNYFTSVPKNFMELLTNQEAQQWVSGWRLNADSVLWGGHKVFMVKPEEPFQPVKEATQL [F101W], for which the “area with substrate ENLYFAS” value was determined as 0.0678, the “area with substrate ENLYFCS” value worked out at 0.0658, the “area with substrate ENLYFFS” value was determined as 0.0436 and the “area with substrate ENLYFIS” value was 0.0679. Besides, the “area with substrate ENLYFKS” value was 0.0456, the “area with substrate ENLYFMS” value was determined as 0.0575, the “area with substrate ENLYFNS” value is 0.0727 and the “area with substrate ENLYFPS” value is 0.0723. For the same variant, the “area with substrate ENLYFRS” value was 0.059, the “area with substrate ENLYFTS” value is 0.0611, the “area with substrate ENLYFWS” value was found to be 0.0547 and the “area with substrate ENLYFYS” value was determined as 0.0608.

In the case of MGESLFKGPRDYNPISSSICHLTNESDGHTTSLYGIGFGPFIITNKHLFRRNNGTLVVQSLHGVFKVKDTTTLSQHLVDGRDMIIIRMPKDFPPFPQKLKFREPQREERICLVTTNFQTKSMSSMVSDTSCTFPSGDGIFWKHWIQTKDGQCGSPLVSTRDGFIVGIHSASNFTNTNNYFTSVPKNFMELLTNQEAQQWVSGWRLNADSVLWGGHKVFMVKPEEPFQPVKEATQL [Q74S], the “area with substrate ENLYFAS” value is 0.0571, the “area with substrate ENLYFCS” value is 0.0625, the “area with substrate ENLYFFS” value was 0.0564 and the “area with substrate ENLYFIS” value is 0.039. In addition, the “area with substrate ENLYFKS” value stood at 0.0708, the “area with substrate ENLYFLS” value stood at 0.0439, the “area with substrate ENLYFMS” value amounted to 0.0742 and the “area with substrate ENLYFNS” value amounted to 0.0655. The “area with substrate ENLYFPS” value was 0.0727, the “area with substrate ENLYFVS” value is 0.0633 and the “area with substrate ENLYFYS” value was 0.0562.

MGESLFKGPRDYNPISSSICHLTNESDGHTTSLYGIGFGPFIITNKHLFRRNNGTLVVQSLHGVFKVKDTTTLQQHLVDGRDMIIIRMPKDFPPFPQKLKFREPQREERICLVTTNFQTKSMSSMVSDTSCTFPSGDGIFWKHWTQTKDGQCGSPLVSTRDGFIVGIHSASNFTNTNNYFTSVPKNFMELLTNQEAQQWVSGWRLNADSVLWGGHKVFMVKPEEPFQPVKEATQL [I145T]: the “area with substrate ENLYFAS” value turned out to be 0.0583, the “area with substrate ENLYFCS” value came to 0.0676, the “area with substrate ENLYFDS” value turned out to be 0.0604 and the “area with substrate ENLYFES” value is 0.0638. Also, the “area with substrate ENLYFFS” value was determined as 0.07, the “area with substrate ENLYFHS” value amounted to 0.065, the “area with substrate ENLYFIS” value was determined as 0.05 and the “area with substrate ENLYFKS” value was found to be 0.0547. The “area with substrate ENLYFLS” value came to 0.0566, the “area with substrate ENLYFMS” value was found to be 0.0649, the “area with substrate ENLYFNS” value is 0.0622 and the “area with substrate ENLYFPS” value stood at 0.0605. Besides, the “area with substrate ENLYFRS” value worked out at 0.0463, the “area with substrate ENLYFSS” value stood at 0.0738, the “area with substrate ENLYFTS” value amounted to 0.0582 and the “area with substrate ENLYFVS” value came to 0.147. Moreover, the “area with substrate ENLYFWS” value is 0.0847 and the “area with substrate ENLYFYS” value is 0.0511.

For the variant MGESLFKGPRDYNPISSSICHLTNESDGHTTSLYGIGFGPFIITNKHLFRRNNGTLVVQSLHGVFKVKDTTTLQQHLVDGRDMIIIRMPKDFPPFPQKLKFREPQREERICLVTTNFQTKSMSSMVSDTSCTFPSGDGIFWKHWIQTKDGQCGSPLVSTRDGFIVGIHSASNFTNTNNYFTSVPKNFMELLTNQEAQQWVSGWRLNADSVLWGGHKVFMVKPLEPFQPVKEATQL [E223L], the “area with substrate ENLYFAS” value amounted to 0.0622, the “area with substrate ENLYFCS” value was 0.0719, the “area with substrate ENLYFES” value was found to be 0.0658 and the “area with substrate ENLYFFS” value was 0.0666. The “area with substrate ENLYFHS” value stood at 0.0687, the “area with substrate ENLYFIS” value was 0.0567, the “area with substrate ENLYFKS” value came out at 0.0565 and the “area with substrate ENLYFLS” value came out at 0.221. Moreover, the “area with substrate ENLYFMS” value was determined as 0.0629, the “area with substrate ENLYFNS” value is 0.0605, the “area with substrate ENLYFPS” value was found to be 0.0572 and the “area with substrate ENLYFRS” value is 0.0639. In addition, the “area with substrate ENLYFTS” value came out at 0.0737, the “area with substrate ENLYFVS” value was found to be 0.0501, the “area with substrate ENLYFWS” value was 0.0579 and the “area with substrate ENLYFYS” value came out at 0.0548.

Turning to MGESLFKGPRDYNPISSSICHLTNESDGHTTSLYGIGFGPFIITNKHLFRRNNGTLVVQSLHGVFKVKDTTTLQQHLVDGRDMIIIRMPKDFPPFPQKLKFREPQREERICLVTTNFQTKSMSSDVSDTSCTFPSGDGIFWKHWIQTKDGQCGSPLVSTRDGFIVGIHSASNFTNTNNYFTSVPKNFMELLTNQEAQQWVSGWRLNADSVLWGGHKVFMVKPEEPFQPVKEATQL [M125D], the “area with substrate ENLYFAS” value came to 0.0606, the “area with substrate ENLYFCS” value was 0.0409, the “area with substrate ENLYFDS” value worked out at 0.0667 and the “area with substrate ENLYFES” value is 0.0665. In addition, the “area with substrate ENLYFFS” value was 0.0742, the “area with substrate ENLYFGS” value was found to be 0.0657, the “area with substrate ENLYFHS” value was 0.0595 and the “area with substrate ENLYFIS” value was determined as 0.0567. Further, the “area with substrate ENLYFKS” value was found to be 0.0572, the “area with substrate ENLYFLS” value stood at 0.0581, the “area with substrate ENLYFMS” value was 0.0713 and the “area with substrate ENLYFNS” value turned out to be 0.0599. Besides, the “area with substrate ENLYFPS” value was 0.023, the “area with substrate ENLYFRS” value is 0.0678, the “area with substrate ENLYFTS” value amounted to 0.0568 and the “area with substrate ENLYFVS” value was 0.0499. Also, the “area with substrate ENLYFWS” value came out at 0.0519 and the “area with substrate ENLYFYS” value turned out to be 0.0735.

As for MGESLFKGPRDYNPISSSICHLTNESDGHTTSSYGIGFGPFIITNKHLFRRNNGTLVVQSLHGVFKVKDTTTLQQHLVDGRDMIIIRMPKDFPPFPQKLKFREPQREERICLVTTNFQTKSMSSMVSDTSCTFPSGDGIFWKHWIQTKDGQCGSPLVSTRDGFIVGIHSASNFTNTNNYFTSVPKNFMELLTNQEAQQWVSGWRLNADSVLWGGHKVFMVKPEEPFQPVKEATQL [L33S], the “area with substrate ENLYFAS” value was 0.0654, the “area with substrate ENLYFCS” value is 0.0547, the “area with substrate ENLYFDS” value came to 0.049 and the “area with substrate ENLYFFS” value was 0.0661. The “area with substrate ENLYFGS” value is 0.0495, the “area with substrate ENLYFHS” value worked out at 0.063, the “area with substrate ENLYFIS” value worked out at 0.0527 and the “area with substrate ENLYFKS” value stood at 0.0584. The “area with substrate ENLYFMS” value was determined as 0.0611, the “area with substrate ENLYFNS” value was 0.074, the “area with substrate ENLYFPS” value amounted to 0.051 and the “area with substrate ENLYFRS” value was found to be 0.0595. Besides, the “area with substrate ENLYFSS” value was determined as 0.0664 and the “area with substrate ENLYFWS” value worked out at 0.0447.

For the variant MGESLFKGPRDYNPISSSICHLTNESDGHTTSLYGIGFGPFIITNKHLFRRNNGTLVVQSLHGMFKVKDTTTLQQHLVDGRDMIIIRMPKDFPPFPQKLKFREPQREERICLVTTNFQTKSMSSMVSDTSCTFPSGDGIFWKHWIQTKDGQCGSPLVSTRDGFIVGIHSASNFTNTNNYFTSVPKNFMELLTNQEAQQWVSGWRLNADSVLWGGHKVFMVKPEEPFQPVKEATQL [V64M], the “area with substrate ENLYFAS” value came to 0.055, the “area with substrate ENLYFCS” value turned out to be 0.0584, the “area with substrate ENLYFDS” value was determined as 0.0653 and the “area with substrate ENLYFES” value turned out to be 0.0625. Further, the “area with substrate ENLYFFS” value was determined as 0.0861, the “area with substrate ENLYFGS” value came to 0.0681, the “area with substrate ENLYFIS” value amounted to 0.0536 and the “area with substrate ENLYFKS” value was determined as 0.0581. The “area with substrate ENLYFMS” value was 0.0789, the “area with substrate ENLYFNS” value was 0.0775, the “area with substrate ENLYFPS” value was determined as 0.0623 and the “area with substrate ENLYFRS” value is 0.0668. Moreover, the “area with substrate ENLYFTS” value came to 0.0543, the “area with substrate ENLYFVS” value was 0.0635 and the “area with substrate ENLYFYS” value stood at 0.0537.
